Drawing on publication PMC10726135, this text covers binding signal (log2 normalized intensity) for 72 sequences.

Some of the results follow. At the low end of the ranking the order means little. Measured with an extract: partners may take part in the binding.

In this assay the target is T1, HNF4alpha2 (COS-7 nuclear extract) (UniProt P41235).
T1 sequence: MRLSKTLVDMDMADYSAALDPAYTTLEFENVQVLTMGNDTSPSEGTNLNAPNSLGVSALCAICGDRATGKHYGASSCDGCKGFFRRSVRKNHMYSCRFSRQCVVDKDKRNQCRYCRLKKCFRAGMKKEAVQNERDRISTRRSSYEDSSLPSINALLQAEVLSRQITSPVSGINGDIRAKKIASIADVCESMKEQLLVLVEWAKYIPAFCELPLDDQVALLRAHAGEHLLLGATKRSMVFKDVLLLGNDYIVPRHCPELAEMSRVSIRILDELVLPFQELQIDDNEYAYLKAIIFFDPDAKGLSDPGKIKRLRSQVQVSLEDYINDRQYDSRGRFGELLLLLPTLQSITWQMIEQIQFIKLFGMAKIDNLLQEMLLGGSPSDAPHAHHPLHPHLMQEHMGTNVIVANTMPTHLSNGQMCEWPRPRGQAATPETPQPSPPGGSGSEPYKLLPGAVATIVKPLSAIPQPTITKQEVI
In words: protein-binding microarray. The conditions noted are these: COS-7 nuclear extract on double-stranded Agilent 4x180k PBM; binding buffer, salt, pH and temperature not given; high values mean tight binding; double strand, one strand shown; sequences stand for … in …GCCTAGGGAGATTAGAGTATCGGTCGA
Regarding GGCTCAGGCCGGTTGGCCAGGTTCCTCCAC, the binding signal (log2 normalized intensity) was -1.09. The result for AAACCACACACTCCATAACTTTGGGACACT reads -1.08; that for TGGATGGGGGAGGGGACTTCGCTGGAGGTG, -0.382; that for AAAGATATCTCTGTGGATAGCTCAGGGATT, -0.751. With CCTGCCTACATCAAGAGGATTACATAACCA the figure was -1.14; with GCTCCCAGTGCACACAGACTTTTGTGTGGT, 1.22; with CTGCTTTTATGACCTTTGACTGCAGAAGAT, 5.27. Turning to ATAAGGCTGCCTCCTATCCTCTGATCCCCA, the binding signal (log2 normalized intensity) stood at 1.85. With TTTACAGGACATAGTCCTCTGCATATTTCT the figure was -0.722. With GATCAAGAGGAAGATCTTTTTGATGACTTT the figure was 0.855; with CAGAGTCCAGAGGTCACTTTGCTGCCTTTT, 4.5. With CAGGGAAGAGCCGGCCGGCGGGGTCACGTG the figure was 2.79; with TTATATCCCCTGCCTGGGTCCTGGGAGCAA, 0.066.

In the case of TAGATAAACTACTTTATATTCCTTTGTATC, the binding signal (log2 normalized intensity) came to 0.86. Consider CTTTAGAGAAACGCACTCGCCTCTCCTGTT, for which the binding signal (log2 normalized intensity) was -0.777.

As to CAGAAAGTCCGGGGGCCAGTTCACTCAGTC, the binding signal (log2 normalized intensity) was -1.17. With GGTATGTATGGAATGTCACTTTCTGACAGG the figure was 1.37. The result for TGGGTGGAAGGAAAAGAGGAAAACCAGCTC reads -1.13; that for TGAGGCAAAATTCCTCGCTAGCTGTCAATC, -1.18; that for GCACAGTTACTCCACAACTTGTTCTATTGT, 1.31. The result for TCAGAGCTTGAAAAGTCTTTCTGCCAAAGT reads 0.27; that for TGTGCAGCTTTGTGTAAAACTTCAAAGAAG, -0.427. Take CTGAGGTGGAAGGATCACCTGAGTCCAGAG: the binding signal (log2 normalized intensity) was -0.288. With ATGTCTAACCTCCTGGGAATGCAGTCCAGT the figure was 0.0532; with CCGGTTCCTCTGGATACCCTTCCCCCCAAG, 4.97; with TTTGGCTCTAGAGGAGTCCCCTTAAAATTC, 0.857.

With ACGGCTGCTGTAACAAGTGGCTATAAACTA, the binding signal (log2 normalized intensity) was -1.1. With GCCACCATTGATCTAACAGGAGGTGGAGCT the figure was -1.18; with AGTGTGACCCTGAACCTACAGCCCCTGTGG, -0.752; with AGCTGGGGTGCCTGATAATGACTCTTGAAC, 1.23. Regarding CCTTTTTGCATGAGAATCTGACCTTTGGTT, the binding signal (log2 normalized intensity) was found to be 6.46.

With TTAGGAATGCAACTCTAACCTTTACCTTCT, the binding signal (log2 normalized intensity) amounted to 2.13. Take TTCAATTTTTTTGTTGTTATCCATTTAAAA: the binding signal (log2 normalized intensity) came out at 1.04. The result for CATCCTGACCATCTGCGAAATGGGGATAAA reads -1.03.

For CTAAATCTGAATAGAACTCAGGAAAGATCA, the binding signal (log2 normalized intensity) was -0.905. With TCCTGGTGCAGGGGGCGAGCATGGCCGCTC, the binding signal (log2 normalized intensity) was -1.19. With CTCGGCATTCAGACAGACCCAGGGGAATAA, the binding signal (log2 normalized intensity) is -1.1. With TACAGTCAGAGGCCTGAAGGCCCCCAGGTA the figure was 2.04.

As for GCCACCTTGGTGAGAGATTAAACATGCTCT, the binding signal (log2 normalized intensity) came out at 0.469. In the case of CAAGGGATCGTCCAAATACCTAGCTGTTTG, the binding signal (log2 normalized intensity) is -1.07. For the sequence TGCTGAAGATAAGACTTCCTCAGATAACCC, the binding signal (log2 normalized intensity) was -0.855.

GTACTGGGACTGTGCAGACAAGATATGAGG: the binding signal (log2 normalized intensity) is -0.778. With GAGCATATGTATGTCAGAGTATGTGTGTAT the figure was 2.43; with TCAGAAGCCACCAGTGCAAATATAAAAGGC, -1.03.

As for AGCTTCCAGAATAGCCTCTGCAACTCAGAG, the binding signal (log2 normalized intensity) is -1.1. With AGAATTCGATTGTTTAGGAGCCAATTATGC the figure was 0.98; with TAATTAAGACTCAGTCGGCTGTCAAATCAC, -1.16. As to TTGATATTTATCAAGATGAACTTTGACCCA, the binding signal (log2 normalized intensity) came to 10.8. In the case of GAGGCAGGACCTTGGGAAAGGAGAAGCTGG, the binding signal (log2 normalized intensity) is -1.14. The result for ACAGATAAGATTTGGAAAATATTGCCAATA reads -1.08; that for AGATTCCAGGGGAGGGTAAGAGTCCAACTT, 3.18. The result for TTGTAGCTCTCAGCTCCTACATTACACTCC reads -1.17. The result for CCCGGCCAACGGTCGGAAGGGAGGTGCCAT reads -1.08. As to AGAGGCCAGCTAAAACTGCAGATTGACTCA, the binding signal (log2 normalized intensity) is -1.02. The result for GTTTGAATTCTTGCCTATCCCATAGGTGAG reads -1.04; that for CATTACTATCTGCTGGGGGCTGGGCCCCAC, -1.21; that for GTGGCCACAAAATGAACACCTGTTCTAATC, -0.644.

On to GAAATAGTGAGACAGACATGCGACATGAGG, for which the binding signal (log2 normalized intensity) turned out to be 0.09. With GGAGGCTGCAGCGCCACATTCTGAGCCAGC the figure was -1.02. With CTCCCCTCCTCCCTTGCTCACCCCACGGTT the figure was 4.18. For the sequence TTCAGGTTTGCTAATATCTGATGTTAAATC, the binding signal (log2 normalized intensity) turned out to be 1.81. The result for GAAACAACACCAGCAATCACCTACCCCCAG reads 3.95; that for AAAAATGGGCTGGGACTCATTTATGGAGGA, -0.911. For the sequence TCACACGGGGATGGCAGACGGGGCTCTCAG, the binding signal (log2 normalized intensity) is -1.06. As for AAACAGGTGAAAGATAAGGGCTAGTTCATT, the binding signal (log2 normalized intensity) was -1.07. The result for TTCTTGTTAACCTCCTATGATCTTTCATTC reads 0.946.

On to CAGGCGCCGACTGCCAGGAGGGGACTTCAA, for which the binding signal (log2 normalized intensity) is -1.15. The result for GTCATAAGAAACATTTTACAACCTATTCTC reads -0.9; that for GCTAAAACCCTGGCCACTCCCTGATAGAGA, -1.07; that for AATATGGTCCCTGACCTTAAGGAGTGTCCT, 1.99. The result for TACAGATATTCTGAGACAACACTCAGGATA reads 0.111; that for TTTTCTCCTTTCCTCCTATGTCAATAGAGC, 0.915.
